# Laboratory results published in PMC6212790.
# Some of the results follow. At the low end of the ranking the order means little.
# Biological target: T1, GST-Rok (full length) (UniProt O34857)
# T1 sequence: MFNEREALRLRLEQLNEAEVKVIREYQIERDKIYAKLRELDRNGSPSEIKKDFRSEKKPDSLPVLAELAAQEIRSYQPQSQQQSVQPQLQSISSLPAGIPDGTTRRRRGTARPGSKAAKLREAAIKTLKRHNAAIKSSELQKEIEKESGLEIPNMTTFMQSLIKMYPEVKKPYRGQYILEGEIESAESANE
# Test: protein binding microarray;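 further: rank score from −0.5 (least bound) to 0.5 (best bound)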
# Conditions: Rok is a gene silencer of Bacillus subtilis; high values mean tight binding; most listed sequences are background and not binding sites; double strand, one strand shown
row,Sequence,binding signal
1,ACACAAGA,0.0236 E-score
2,CCCCGCCG,-0.378 E-score
3,GTCCAAAC,0.0166 E-score
4,CTTGAAAA,-0.0933 E-score
5,AGTAGAAA,0.42 E-score
6,GTAGAACA,0.249 E-score
7,ACCTGAGA,-0.148 E-score
8,AGTACTGG,0.156 E-score
9,ATACCCAC,0.142 E-score
10,TAAGATCA,0.231 E-score
11,CTGGCTAA,-0.228 E-score
12,CTTTGATC,0.0707 E-score
13,CGGATATA,0.151 E-score
14,AACCGTTC,-0.0678 E-score
15,AACGTTAG,0.344 E-score
16,AGGAATCA,0.0547 E-score
17,GGTTTCTA,0.334 E-score
18,CATCATTA,0.0295 E-score
19,AACCTCGT,-0.155 E-score
20,ATCCACTC,-0.0458 E-score
21,CGCTCCAG,-0.146 E-score
22,CGAGAAAC,0.0424 E-score
23,CTCGTGTC,-0.282 E-score
24,ATATCGGG,0.0322 E-score
25,CGGGACAA,-0.213 E-score

row,Sequence,binding signal
1,ACTGACCA,-0.0122 E-score
2,AGAGCAAA,-0.0912 E-score
3,CATTGCAG,-0.201 E-score
4,GGTACATA,0.196 E-score
5,ACCGCAGA,-0.0176 E-score
6,AATGCTCT,-0.0117 E-score
7,TGGTTAAA,0.0539 E-score
8,CATAAATC,0.118 E-score
9,AATGGAGG,-0.114 E-score
10,CAAGTACG,0.058 E-score
11,AGATCGAT,0.183 E-score
12,GCGTTCCA,0.148 E-score
13,TCCAGTAA,0.0498 E-score
14,AGTTTGGC,0.0399 E-score
15,CGGAACTA,0.279 E-score
16,ATTTTTTA,0.0689 E-score
17,AACTCTCT,-0.0592 E-score
18,AAACCAAT,0.185 E-score
19,AGGGCTCC,-0.299 E-score
20,ACTTTCTA,0.386 E-score
21,AGGTAAGC,-0.0863 E-score
22,ATCTCCAG,0.113 E-score
23,AGAGCGTC,-0.225 E-score
24,AAGTCAAC,-0.021 E-score
25,ACGTGACC,-0.0612 E-score

row,Sequence,binding signal
1,GCTAAGTA,0.147 E-score
2,ACGTTTCC,-0.0724 E-score
3,ACCAGTAT,0.255 E-score
4,AGTATGTC,0.154 E-score
5,CGTACCCC,-0.301 E-score
6,GATGATTA,0.229 E-score
7,CAGACACG,0.00984 E-score
8,ACCTTTAC,0.0562 E-score
9,ATAATTTA,0.397 E-score
10,ACAGTTTC,-0.0134 E-score
11,AGCCCGAA,-0.159 E-score
12,CTGATAGC,0.14 E-score
13,AGCTTGTA,0.228 E-score
14,CCACTGAC,-0.105 E-score
15,AATTCACT,0.0674 E-score
16,ACGCCCTG,-0.384 E-score
17,ATGTCAAG,0.0919 E-score
18,GAGGTGCA,-0.246 E-score
19,AACACTAA,0.152 E-score
20,CGAAACTC,-0.0462 E-score
21,GACTCTCC,-0.153 E-score
22,ACTAGTAT,0.422 E-score
23,CACTTGCA,-0.0121 E-score
24,AAAAGCTT,-0.035 E-score
25,ACTCAGTA,0.167 E-score

row,Sequence,binding signal
1,ACATCGTC,0.128 E-score
2,CGGTATTA,0.257 E-score
3,ACATCTCG,-0.0379 E-score
4,ACCACTAA,0.172 E-score
5,ATGGCACC,-0.128 E-score
6,CATTCGGG,-0.163 E-score
7,GAAATTGA,0.0154 E-score
8,CGCGAACG,-0.101 E-score
9,CACCAGAA,-0.0113 E-score
10,AGCTGTAG,0.11 E-score
11,AGAAAGTG,0.115 E-score
12,CCAACAAA,-0.0217 E-score
13,CTCACCAG,-0.15 E-score
14,ACGTCTCG,-0.172 E-score
15,CCTAGCGC,-0.112 E-score
16,AGGGTCCG,-0.278 E-score
17,CCCAGCCA,-0.373 E-score
18,CAAGGGTG,-0.0861 E-score
19,ACTGCGCC,-0.255 E-score
20,CCGGACAG,-0.222 E-score
21,AGGCGTCA,-0.313 E-score
22,CCATCGAG,0.047 E-score
23,CGACGTAC,-0.0209 E-score
24,AATGCCAG,-0.0573 E-score
25,AAAAAGCC,-0.0675 E-score

row,Sequence,binding signal
1,GCTTAAAA,-0.00971 E-score
2,ACCTGGCC,-0.116 E-score
3,AGATGCAG,-0.053 E-score
4,GAACATAA,0.168 E-score
5,CTGCTTCC,-0.198 E-score
6,AATAAGTC,0.21 E-score
7,CCTTAGCC,-0.143 E-score
8,ATTACTTA,0.301 E-score
9,ATCGTTGA,-0.0442 E-score
10,CGTAACTA,0.304 E-score
11,ATAGACGA,0.0654 E-score
12,ACCCCCGG,-0.354 E-score
13,CATTGGAC,-0.0936 E-score
14,CACGTCGA,0.132 E-score
15,ACTAGAAG,0.215 E-score
16,CCTTAGAA,0.106 E-score
17,ATACGATA,0.366 E-score
18,GGAGCAAA,-0.202 E-score
19,ACTGTACG,0.0892 E-score
20,AAAGTATA,0.293 E-score
21,CAGCTAAG,-0.00322 E-score
22,TGCAACAA,0.163 E-score
23,CCCTTGTA,0.0458 E-score
24,CAATTATA,0.363 E-score
25,ACAGGCCG,-0.0161 E-score

row,Sequence,binding signal
1,AGGTCCTA,-0.0844 E-score
2,CGTCACTA,-0.0147 E-score
3,AACGTGGT,-0.00331 E-score
4,CTATCGGA,0.187 E-score
5,GGAAGCCA,-0.211 E-score
6,AGGGGAAG,-0.285 E-score
7,ATCCACTG,-0.0344 E-score
8,ACGGATAG,0.0888 E-score
9,CCCGTCCA,-0.168 E-score
10,CGCGTTGA,0.177 E-score
11,ACTGCGAA,0.0649 E-score
12,AAACAATT,0.207 E-score
13,CTGGATAC,-0.00847 E-score
14,GACGGAGA,-0.129 E-score
15,ACTTACGG,-0.0522 E-score
16,ATGTTACC,0.175 E-score
17,TTCGGAAA,-0.0414 E-score
18,GACATAAA,0.0931 E-score
19,CCATATCG,-0.0398 E-score
20,GTTTTCTA,0.248 E-score
21,ACATGTAA,0.221 E-score
22,TGCACGCA,-0.184 E-score
23,CGGGTCTA,-0.153 E-score
24,CCAGAAAA,-0.171 E-score
25,CTAGTGGA,-0.0164 E-score

row,Sequence,binding signal
1,CCTGCGTC,-0.424 E-score
2,GTCTGGGA,-0.214 E-score
3,AGCGGACT,-0.23 E-score
4,GAGTCGGC,-0.169 E-score
5,CTGCCGCA,-0.299 E-score
6,CTAGCCTA,0.0833 E-score
7,ATTTATGC,0.191 E-score
8,AGTGCCGG,-0.106 E-score
9,ACAGGGGC,-0.328 E-score
10,CTTCAGCC,-0.32 E-score
11,GCGAGAAA,-0.035 E-score
12,CCATAAAA,0.123 E-score
13,GAAAGAGC,-0.132 E-score
14,GAAAGCTA,0.0701 E-score
15,GGATCTAA,0.139 E-score
16,CATGAATA,0.177 E-score
17,TCCCGCGA,-0.188 E-score
18,CATACGCC,-0.00911 E-score
19,ATCGGCAG,-0.215 E-score
20,AACGCTAG,0.127 E-score
21,GCATCTTA,0.0934 E-score
22,GGCTCCCC,-0.457 E-score
